Test results from ChEMBL document CHEMBL4196070, “Development of Piperazinediones as dual inhibitor for treatment of Alzheimer's disease” (Eur J Med Chem, 2018).

Key:
Settings in all cases: Electrophorus electricus
[1] = tested on: O=C1C(c2ccccc2)N(S(=O)(=O)c2ccc(Cl)cc2)C(=O)C(c2ccccc2)N1S(=O)(=O)c1ccc(Cl)cc1; experiment: Non-competitive inhibition of electric eel AChE assessed as Vmax for substrate at 10 nM preincubated for 30 mins followed acetylthiocholine iodide substrate addition by Lineweaver-Burk plot analysis
[2] = tested on: O=C1C(c2ccccc2)N(S(=O)(=O)c2ccc(Cl)cc2)C(=O)C(c2ccccc2)N1S(=O)(=O)c1ccc(Cl)cc1; experiment: Non-competitive inhibition of electric eel AChE assessed as Vmax for substrate at 20 nM preincubated for 30 mins followed acetylthiocholine iodide substrate addition by Lineweaver-Burk plot analysis
[3] = tested on: O=C1C(c2ccccc2)N(S(=O)(=O)c2ccc(Cl)cc2)C(=O)C(c2ccccc2)N1S(=O)(=O)c1ccc(Cl)cc1; experiment: Non-competitive inhibition of electric eel AChE assessed as Vmax for substrate at 40 nM preincubated for 30 mins followed acetylthiocholine iodide substrate addition by Lineweaver-Burk plot analysis

Acetylcholinesterase (Electrophorus electricus) (sequence not shown)
Vmax [1]: 6.79 U/min
Vmax [2]: 5.24 U/min
Vmax [3]: 4.67 U/min
